Measurements from the supplement of paper PMC10126150.
Values marked as one replicate rest on one cluster of the flow cell; about a third of the high ones do not repeat.

Test system: ATP
Experiment: switch fluorescence ratio, 500 uM ATP over buffer (Cy3 cluster intensity, sum of 5 cycles each) (fold (ratio)); higher = stronger signal-on switching upon ATP binding; sequences stand for … in TCGTCGGCAGCGTCAGATGTGTATAAGAGACAGTTTTTTTTTTTTTTTTTTTTTTTTT…TC
Details: aptamer strand: ATP DNA aptamer (quencher-CACCTGGGGGAGTATTGCGGAGGAAGG + anchor), 100 nM annealed; ATP concentration: 500 uM; one replicate
Method in brief: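 Between each of five buffer/ATP cycles, the flow-cell was stripped with NaOH and re-annealed. Each cycle imaged Cy3-labelled switching-strand clusters, annealed to 100 nM quencher-labelled ATP aptamer on a modified Illumina MiSeq flow-cell, first in selection buffer and then after 15 min with 500 uM ATP at 22 °C. The fluorescence ratio is summed target-cycle over summed buffer-cycle Cy3 intensity per cluster, averaged per switch-domain sequence, with clusters outside 100-1000 RFU excluded.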
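Also: ATP exposure 15 min at 22 °C before imaging.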

Sequence | switch fluorescence ratio
TCATACGGAG | 1.04
TGGGGCATCC | 1.09
ATTATGTGGG | 0.934
GAATTCCCAT | 1.01
GAGCGGGTTC | 1
TTTACGGCCG | 1.03
TAGTATGCTA | 0.984
TTCGCAGACT | 3.25
GATGCAGGAA | 1.13
ACATAGCGTC | 1.08
GAGTTACAGA | 0.973
GTAAGACGGG | 0.963
CTTTCGTATG | 1.05
TCAGTCTCA | 1.01
TCATTATTGT | 0.97
TTCGAGGAAC | 1.01
CCTCTGCTTC | 2.44
CAGGCGCTGG | 0.988
GAAAGTATTA | 1.02
AGACGCAGG | 1.03
CTGTCTCGTT | 0.964
TGTATGCTGC | 0.935
CATTACGAAA | 1.07

Sequence | switch fluorescence ratio
GTCTGTGACA | 1.02
AGCTGCGAGG | 0.931
CTACACTACG | 1.54
ACGAAAGCGA | 0.926
AGCAGTGTT | 0.978
TTCAGGGAGT | 0.983
TGCTTTGGCG | 1.03
AGCTAACCGG | 1
CGTTTGTGCT | 0.977
CCTTAGCTCG | 0.962
GACATGGTAG | 1.02
CACTCCAGGC | 1.36
TATGGTTTGA | 0.971
CGGAGCGCT | 1.08
TGGCATAAAA | 0.983
TTCACCCGCC | 1.13
GTCTGAGAAT | 0.958
GGACGTACTA | 1.63
ATTTGCACTC | 1.05
ATTACCCGTG | 0.99
GGGTCGGCCA | 1
GGCTTCTACG | 1.06
GAGGAGCGGA | 1.07

Sequence | switch fluorescence ratio
GATTCCTATT | 1.04
ACACGGGTAT | 1.01
ACATGGTGC | 1.21
CTGCAGGTTC | 1.27
TGAAATCGG | 1.02
GGCTATTCGT | 0.971
TGGCGCGCCC | 0.945
CAACGCCGCA | 1.17
TTCTGGTTGC | 0.998
AGCCATGTGC | 0.993
GACCGTATCG | 0.936
CCTGAGTATG | 1.04
TAAACCTATA | 1.03
GGCGGGGCTG | 0.988
TTAAAATAAT | 1.01
GTTCACGTTT | 0.999
TTTAGGGCTA | 1.02
TGCTGAACG | 1.02
GGAGTAAGGT | 1.01
AAGTTGACA | 1
TAACCGGGTA | 0.989
ACTCTCCAG | 1.25
GATATAATTC | 0.996

Sequence | switch fluorescence ratio
TTGGAAGTT | 1
AGGGAGCAGC | 1.01
CGCCATCTTT | 1.05
CGTGCGGTGA | 1.01
TACGACTGG | 0.963
GAAACGCCAG | 0.981
CATCTAGACG | 0.988
CTTCAAGGCA | 1.05
GGGCGTTGGA | 1.02
TTAGGAGGAT | 0.979
ATGGGTACGA | 1
CCAGTTAGCG | 1.03
CGTCACGTTG | 0.991
ATGGCGCCTC | 1.02
AGTCTAGTGC | 0.948
TGACTAGCAT | 1.1
ATGAACTCTT | 0.969
AATGTCCCAG | 0.994
TTTACACCGT | 1.02
CTGTGCGAAG | 1.01
ACATTCAGGG | 1.08
TTCCGAGTCC | 1.05
CTGAGGCCCC | 1.02

Sequence | switch fluorescence ratio
ACTGAACCAT | 1.19
GGGAGTCTGC | 0.952
TGTATTAACA | 0.994
AAGTTCAGGG | 0.988
AGAGTTCATG | 0.997
AGTGTGGGTG | 0.997
GTTTACGCT | 1.06
CAATGGTAC | 1.1
AAAGTACGTA | 1.12
TGCCTTGAAT | 0.996
GTGATCTTGC | 1.01
GTGCGTGTCC | 0.974
CTATATTTAT | 1.01
TCGTTGTGGC | 0.968
ATACCGGCAT | 0.982
TACCTTTGGC | 1.07
AGAAGGGGAA | 1
GACGCTTAGC | 1.46
GCTGTTAGTT | 1.03
TACCTATCTC | 1.08
TTCTAGGTGT | 1.28
GCTAACCTCC | 2.18
TAGTGATATT | 1.06

Sequence | switch fluorescence ratio
CTCCCCAGTA | 1.04
AAACTGCGGC | 1.04
TGGAACGGCC | 0.989
TGGTGTGCAA | 1.09
TCCACATGAG | 1.07
TAGGGGGCGA | 0.991
CGAGATGGGG | 0.96
GACGAGAATA | 1.11
CGGGATCAGA | 1.01
GGTTTAGATT | 0.991
TGTTAGAGTG | 1.04
TACCCCCGTG | 1.79
TAATGCTACA | 1
ATTAGTCCGC | 1.4
TATTTCCATA | 0.987
GAGATCCATT | 0.99
CATTTGCTTC | 1.08
TGAGGTCGGA | 0.989
TGCGTTATTT | 0.952
TAATTATTGT | 1.03
CGCCGCCACG | 1.65
TCGGAGTTAT | 1.09
TATGGCCGTT | 1.01

Sequence | switch fluorescence ratio
TAGAAGATCG | 0.959
GACAATTTTG | 0.965
GGAATTGAAC | 1.01
GCTTATTCTG | 0.971
GTTTTAATT | 0.951
AGTTGACAGA | 1.01
CAGGGGTCCT | 1.02
CGATTGGCAT | 1.13
CACTTTCTA | 1.01
AACAGTAGGC | 1.04
CTGGTTTAAA | 0.964
CTTTGATTTC | 1.06
AAGAATCCGA | 1.01
AATGAAATTC | 1.09
GGAAATGATG | 0.949
AGCGCGCAAT | 1.2
ATAAACATAT | 1.03
AATTCCGCCG | 1.07
TTGCTGTGG | 1
